Measurements: publication PMC4336329 (PLoS ONE, 2015)
Among all 310,000 compounds or so, about 14,000 (4.5%) showed an effect of 50% or more. Effects have a minus sign here. This is one part of the list.
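Further: peak tail current of the secondary pulse compared with the same well before compound.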

What follows are compounds tested against human ether-à-go-go-related gene (hERG) potassium channel (human, UniProt Q12809) (assay: primary screen, population patch clamp on CHO cells stably expressing hERG).
human ether-à-go-go-related gene (hERG) potassium channel, sequence (Q12809 whole entry, looked up): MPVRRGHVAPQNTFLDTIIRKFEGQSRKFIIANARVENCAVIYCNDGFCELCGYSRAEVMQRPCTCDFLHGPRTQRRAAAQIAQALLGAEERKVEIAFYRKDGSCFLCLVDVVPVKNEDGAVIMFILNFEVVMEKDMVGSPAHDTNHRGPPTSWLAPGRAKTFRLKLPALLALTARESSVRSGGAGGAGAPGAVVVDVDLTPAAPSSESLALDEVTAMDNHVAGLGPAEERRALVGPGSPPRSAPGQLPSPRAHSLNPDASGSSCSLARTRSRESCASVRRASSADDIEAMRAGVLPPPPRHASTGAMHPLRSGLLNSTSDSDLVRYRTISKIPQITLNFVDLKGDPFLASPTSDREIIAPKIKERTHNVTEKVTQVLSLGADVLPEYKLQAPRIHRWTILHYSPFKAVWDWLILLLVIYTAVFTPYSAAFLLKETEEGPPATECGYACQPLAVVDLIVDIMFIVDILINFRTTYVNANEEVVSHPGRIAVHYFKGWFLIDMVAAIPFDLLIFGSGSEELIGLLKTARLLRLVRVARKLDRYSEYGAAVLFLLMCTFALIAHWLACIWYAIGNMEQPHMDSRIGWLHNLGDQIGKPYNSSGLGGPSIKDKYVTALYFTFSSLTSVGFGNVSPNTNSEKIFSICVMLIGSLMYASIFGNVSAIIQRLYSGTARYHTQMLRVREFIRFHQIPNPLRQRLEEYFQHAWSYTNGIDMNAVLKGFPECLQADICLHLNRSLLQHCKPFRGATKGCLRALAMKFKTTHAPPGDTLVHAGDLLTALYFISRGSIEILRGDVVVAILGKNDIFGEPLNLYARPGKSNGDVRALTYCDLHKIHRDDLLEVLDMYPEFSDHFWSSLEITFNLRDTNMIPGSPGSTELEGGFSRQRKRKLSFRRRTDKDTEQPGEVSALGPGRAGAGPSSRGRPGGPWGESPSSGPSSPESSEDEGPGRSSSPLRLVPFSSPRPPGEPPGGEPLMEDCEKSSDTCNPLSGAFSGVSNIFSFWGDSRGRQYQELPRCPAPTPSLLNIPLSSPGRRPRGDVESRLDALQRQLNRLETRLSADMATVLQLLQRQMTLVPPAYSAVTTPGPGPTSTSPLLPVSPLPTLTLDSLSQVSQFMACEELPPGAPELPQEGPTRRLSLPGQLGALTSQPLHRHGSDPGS
`COc1ccc(S(=O)(=O)N2CCCCCC2)cc1NC(=O)c1ccccc1` was tested, and the “hERG current change (%, negative = inhibition) at 10uM” value was 10.5%.
With `CCc1ccc(CSc2nccn2-c2ccccc2)cc1` the “hERG current change (%, negative = inhibition) at 10uM” value was -2.11%.
In the case of `CCCCn1c(SCC(=O)N2CCCC2)nc2c1c(=O)n(C)c(=O)n2C`, the “hERG current change (%, negative = inhibition) at 10uM” value is reported as -23.4%.
In the case of `C=CCn1c(=O)c2ccccc2n2c(SCC(=O)c3ccccc3)nnc12`, the “hERG current change (%, negative = inhibition) at 10uM” value is reported as -20.3%.
`Cc1ccccc1-n1nc2c(c1NC(=O)C(C)(C)C)CS(=O)(=O)C2` was tested, and the “hERG current change (%, negative = inhibition) at 10uM” value was 12%.
For `Cc1cccc(NC(=O)NCCCCc2ccccc2)c1`, the “hERG current change (%, negative = inhibition) at 10uM” value was 4.78%.
`O=C(NCCS(=O)CCNC(=O)C(F)(F)F)C(F)(F)F` was tested, and the “hERG current change (%, negative = inhibition) at 10uM” value was 16%.
With `Cc1ccc(CSCCNC(=O)CCSc2ccccc2)cc1` the “hERG current change (%, negative = inhibition) at 10uM” value was -7.78%.
`CC(=O)Nc1ccc(OCCCNC(=O)c2c(-c3ccccc3)noc2C)cc1` was tested, and the “hERG current change (%, negative = inhibition) at 10uM” value was 4.89%.
For `COCCNC(=O)C1CCN(S(=O)(=O)c2c(C)noc2/C=C/c2cccs2)CC1`, the “hERG current change (%, negative = inhibition) at 10uM” value was -34.7%.
In the case of `CCS(=O)(=O)C1=NSC2=NC(=O)/C(=C\c3ccc(OS(=O)(=O)c4ccccc4)cc3)C(=N)N21`, the “hERG current change (%, negative = inhibition) at 10uM” value is reported as 22.5%.
`COc1cccc(Nc2nc(-c3ccc4c(c3)OCCO4)cs2)c1` was tested, and the “hERG current change (%, negative = inhibition) at 10uM” value was 6.19%.
With `COc1ccccc1CC(=O)O/N=C(\N)c1cccc([N+](=O)[O-])c1` the “hERG current change (%, negative = inhibition) at 10uM” value was -8.86%.
With `CN(CC(=O)Nc1ccccc1Cl)C(=O)COC(=O)c1cnccn1` the “hERG current change (%, negative = inhibition) at 10uM” value was 28.7%.
With `C/C(=N\N=C1\NC(=O)C(CC(=O)Nc2ccc(Cl)cc2)S1)c1ccco1` (stereo not drawn) the “hERG current change (%, negative = inhibition) at 10uM” value was 13%.
With `CN(C)C(=S)Nc1ccc2ccccc2c1` the “hERG current change (%, negative = inhibition) at 10uM” value was 11.2%.
`COC(=O)c1ccc(NC(=O)C(=O)N2CCN(C(=S)Nc3ccc(C)cc3)CC2)cc1` was tested, and the “hERG current change (%, negative = inhibition) at 10uM” value was -6.54%.
`CN=C(c1ccc([N+](=O)[O-])cc1)N1CCCCC1` was tested, and the “hERG current change (%, negative = inhibition) at 10uM” value was 12.2%.
With `CC(C)(C)OC(=O)N1CCN(C(=O)c2[nH]cnc2C(=O)Nc2nccs2)CC1` the “hERG current change (%, negative = inhibition) at 10uM” value was -9.08%.
With `COc1ccc(OC)c(NC(=O)Cn2c(CCC(=O)O)ccc2-c2ccccc2)c1` the “hERG current change (%, negative = inhibition) at 10uM” value was -5.33%.
`COc1cccc(CNC(=O)C2CCN(S(=O)(=O)c3ccc4c(c3)CC(C)N4C(C)=O)CC2)c1` (stereo not drawn) was tested, and the “hERG current change (%, negative = inhibition) at 10uM” value was 13.6%.
With `COc1ccc(S(=O)(=O)Nc2ccc(F)c(F)c2)cc1Cl` the “hERG current change (%, negative = inhibition) at 10uM” value was 1.02%.
With `Cc1sc2ncnc(SCc3ccco3)c2c1C` the “hERG current change (%, negative = inhibition) at 10uM” value was 7.4%.
`C/C=C/C=N/NC(=O)CN(c1ccc(Br)cc1)S(=O)(=O)c1ccccc1` was tested, and the “hERG current change (%, negative = inhibition) at 10uM” value was -12%.
`CCn1ccnc1CN(C)Cc1nc(-c2ccccc2)no1` was tested, and the “hERG current change (%, negative = inhibition) at 10uM” value was -6.72%.
`Cc1ccc(C(=O)O[C@H](C(=O)O)[C@H](OC(=O)c2ccc(C)cc2)C(=O)O)cc1` was tested, and the “hERG current change (%, negative = inhibition) at 10uM” value was 6.07%.
In the case of `COc1ccc(CC(NC(C)=O)C(=O)NC2CCN(c3c4c(nc5ncnn35)CCC4)CC2)cc1` (stereo not drawn), the “hERG current change (%, negative = inhibition) at 10uM” value is reported as 16%.
In the case of `CCOc1ccc(S(=O)(=O)NCCC(=O)N(CC)CC(=O)Nc2c(F)cccc2F)cc1`, the “hERG current change (%, negative = inhibition) at 10uM” value is reported as -11.6%.
For `COc1ccc(N/N=C(/C#N)S(=O)(=O)C(C)(C)C)cc1`, the “hERG current change (%, negative = inhibition) at 10uM” value was 13.4%.
In the case of `CCOc1ccc(N2CC(C(=O)N3CCCc4ccccc43)CC2=O)cc1` (stereo not drawn), the “hERG current change (%, negative = inhibition) at 10uM” value is reported as -62.6%.
For `CC(C)CCN(C(=O)Nc1ccccc1)C(C)c1cccs1` (stereo not drawn), the “hERG current change (%, negative = inhibition) at 10uM” value was 4.83%.
For `Cc1c(C)c2c(OCC(=O)N[C@@H](CC(C)C)C(=O)O)cc3c(c2oc1=O)CCC(C)(C)O3`, the “hERG current change (%, negative = inhibition) at 10uM” value was 13.9%.
`Cc1cccc(OCc2nc(-c3cccnc3)no2)c1` was tested, and the “hERG current change (%, negative = inhibition) at 10uM” value was -2.27%.
For `O=C1CC(c2ccc(S(=O)(=O)Nc3cc(C(F)(F)F)cc(C(F)(F)F)c3)cc2)CN1` (stereo not drawn), the “hERG current change (%, negative = inhibition) at 10uM” value was 2.17%.
In the case of `CCC(C)(C)NC(=O)C(c1cccn1C)N(C(=O)Cn1nnc2ccccc21)c1ccc(F)cc1` (stereo not drawn), the “hERG current change (%, negative = inhibition) at 10uM” value is reported as 1.09%.
`CCOC(=O)CSc1nnc(Cc2cc(=O)[nH]c(=O)[nH]2)n1-c1cccc(OC)c1` was tested, and the “hERG current change (%, negative = inhibition) at 10uM” value was -7.81%.
In the case of `Cc1cccc(C)c1C(=NCCN(C)C)c1ccccc1.Cl`, the “hERG current change (%, negative = inhibition) at 10uM” value is reported as -41.3%.
For `C[C@H]1C=C(C(=O)NCc2nc3ccccc3[nH]2)O[C@@H](OCCCCO)C1`, the “hERG current change (%, negative = inhibition) at 10uM” value was 4.33%.
`COc1cc(C(c2sc3nc(C)nn3c2O)N2CCN(c3ccccc3)CC2)cc(OC)c1OC` (stereo not drawn) was tested, and the “hERG current change (%, negative = inhibition) at 10uM” value was -2.02%.
`CCCN1CCN(CCCNC(=O)C(CC)n2nc(C)n3c(cc4occc43)c2=O)CC1` (stereo not drawn) was tested, and the “hERG current change (%, negative = inhibition) at 10uM” value was 16.1%.
For `N/C(COc1ccc(C(=O)O)cc1)=N\O`, the “hERG current change (%, negative = inhibition) at 10uM” value was -4.67%.
In the case of `CC(C)Oc1ccc(C(CC(=O)O)NC(=O)C(Sc2ccccc2)c2ccccc2)cc1` (stereo not drawn), the “hERG current change (%, negative = inhibition) at 10uM” value is reported as 0.474%.
For `O=C(Nc1ccc(NC(=O)c2cccs2)cc1Cl)c1ccco1`, the “hERG current change (%, negative = inhibition) at 10uM” value was 12.1%.
`CCCC(C(=O)NCC1CCCO1)N(Cc1ccco1)C(=O)CNS(=O)(=O)c1ccc(F)cc1` (stereo not drawn) was tested, and the “hERG current change (%, negative = inhibition) at 10uM” value was -1.21%.
`CN(C)S(=O)(=O)c1cccc(NC(=O)COC(=O)CCSc2ccc(Cl)cc2)c1` was tested, and the “hERG current change (%, negative = inhibition) at 10uM” value was -15.5%.
In the case of `O=[N+]([O-])CC(=Nc1ccc(F)cc1)N/N=C\c1oc(O)c2ccccc12`, the “hERG current change (%, negative = inhibition) at 10uM” value is reported as -0.338%.
In the case of `Cc1ccc(S(=O)(=O)N2CCC(C(=O)N3CCN(c4ccccn4)CC3)CC2)cc1`, the “hERG current change (%, negative = inhibition) at 10uM” value is reported as -19.4%.
In the case of `CC(C)=C(NC(=O)c1ccccc1)C(=O)N/N=C(\C)c1ccccc1O`, the “hERG current change (%, negative = inhibition) at 10uM” value is reported as 35.7%.
`O=C(CN(C(=O)CNC(=O)c1ccco1)c1cccc(F)c1)NC1CCCCC1` was tested, and the “hERG current change (%, negative = inhibition) at 10uM” value was 4.58%.
In the case of `C=CCn1c(SCC(=O)N(CC)C2CCS(=O)(=O)C2)nc2ccccc2c1=O` (stereo not drawn), the “hERG current change (%, negative = inhibition) at 10uM” value is reported as -79.2%.
For `Cc1c(C(=O)N(CC(C)C)c2c(N)n(Cc3ccccc3)c(=O)[nH]c2=O)sc2nc3n(c(=O)c12)CCC3`, the “hERG current change (%, negative = inhibition) at 10uM” value was 7.27%.
With `Cc1cc2[nH]c(=O)c(=O)[nH]c2cc1S(=O)(=O)N(C)C1CCCCC1` the “hERG current change (%, negative = inhibition) at 10uM” value was 19.9%.
In the case of `CN(C)C(=S)NC(C)(C)C`, the “hERG current change (%, negative = inhibition) at 10uM” value is reported as 4.89%.
In the case of `Cc1cc(C)c2oc(C(=O)N(Cc3cccs3)C3CCS(=O)(=O)C3)cc(=O)c2c1` (stereo not drawn), the “hERG current change (%, negative = inhibition) at 10uM” value is reported as -15.1%.
